Test results as given in the supplement of paper PMC12217912.
The list shows a part of the results. The full chains were built here from the parent and the listed change. Inactive controls read about 0.05.

B1: TEV protease; numbered along this chain (parent)
chain: MGESLFKGPRDYNPISSSICHLTNESDGHTTSLYGIGFGPFIITNKHLFRRNNGTLVVQSLHGVFKVKDTTTLQQHLVDGRDMIIIRMPKDFPPFPQKLKFREPQREERICLVTTNFQTKSMSSMVSDTSCTFPSGDGIFWKHWIQTKDGQCGSPLVSTRDGFIVGIHSASNFTNTNNYFTSVPKNFMELLTNQEAQQWVSGWRLNADSVLWGGHKVFMVKPEEPFQPVKEATQL

Variants of: B1
Experiment: raw area under fraction-flipped curve 0-4 h after induction (AUC4h, not background-subtracted), DNA-recorder readout of cleavage of the substrate (dimensionless); higher = more cleavage of the substrate by the protease variant
Conditions: temperature: 34 °C; time window: 0-4 h after rhamnose induction
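Also: Bxb1 expression induced with 0.2% (w/v) L-rhamnose at OD600 near 0.5, cultures sampled hourly, flipped fraction per protease–substrate barcode pair counted by paired-end Illumina sequencing.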

| Variant | area with substrate ENLYFQK | area with substrate ENLYFQL | area with substrate ENLYFQR | area with substrate ENLYFQS | area with substrate ENLYFQV | area with substrate ENLYFQW | area with substrate ENLYFQH | area with substrate ENLYFQI | area with substrate ENLYFQN | area with substrate ENLYFQT | area with substrate ENLYFQY | area with substrate ENLYFQP | area with substrate ENLYFQQ | area with substrate ENLYFQM |
| --- | --- | --- | --- | --- | --- | --- | --- | --- | --- | --- | --- | --- | --- | --- |
| MGESLFKGPRDYNPISSSICHLTNESDGHTTSLYGIGFGPFIITNKHLFRRNNGTLVVQSLHGVFKVKDTTTLQQHLVDGRDMIIIRMPKDFPPFPQKLKFREPQREERICLVTTNFQTKSMSSMVSDTSCTFPSGDGIFWKHWIQTKDGQCGSPLVSTRDGFIVGIHSASNFTNTNNYFTAVPKNFMELLTNQEAQQWVSGWRLNADSVLWGGHKVFMVKPEEPFQPVKEATQL [S182A] | 0.0648 | 0.0637 | 0.0613 | 0.12 | 0.0705 | 0.0671 |  |  |  |  |  |  |  |  |
| MGESLFKGPRDYNPISSSICHLTNESDGHTTSLYGIGFGPFIITNKHLFRRNNGTLVVQSLHGVFKVKDTTTLQQHLVDGRDMIIIRMPKDFPPFPQKLKFREPQREERICLVTTNFQTKSMSSMVSDTSCTFPSGDGIFWKHWIQTKDGQCGSPLVSTHDGFIVGIHSASNFTNTNNYFTSVPKNFMELLTNQEAQQWVSGWRLNADSVLWGGHKVFMVKPEEPFQPVKEATQL [R160H] |  | 0.0691 |  | 0.111 |  |  | 0.104 | 0.0572 | 0.0848 | 0.0717 | 0.0736 |  |  |  |
| MGESLFKGPRDYNPISSSICHLTNESDGHTTSLYGIGFGPFIITNKHLFRRNNGTLVVQSLHGVFKVKDTTTLQQHLVDGRDMIIIRMPKDFPPFPIKLKFREPQREERICLVTTNFQTKSMSSMVSDTSCTFPSGDGIFWKHWIQTKDGQCGSPLVSTRDGFIVGIHSASNFTNTNNYFTSVPKNFMELLTNQEAQQWVSGWRLNADSVLWGGHKVFMVKPEEPFQPVKEATQL [Q97I] |  | 0.0666 | 0.0355 | 0.0769 | 0.0601 |  |  |  | 0.0809 | 0.0678 | 0.061 |  |  |  |
| MGESLFKGPRDYNPISSSICHLTNESDGHTTSLYGIGFGPFIITNKHLFRRNNGTLVVQSLHGVFKVKDTTTLQQHLVDGRDMIIIRMPKDFPPFPQKLKFREPQREERICLVTTNFQTKSMSSMVSDTSCTFPSGDGIFWKHWIQTFDGQCGSPLVSTRDGFIVGIHSASNFTNTNNYFTSVPKNFMELLTNQEAQQWVSGWRLNADSVLWGGHKVFMVKPEEPFQPVKEATQL [K148F] |  |  | 0.0595 | 0.1 |  | 0.0653 | 0.0749 |  | 0.0786 | 0.0425 | 0.0941 | 0.0616 |  |  |
| MGESLFKGPRDYNPISSSICHLTNESDGHTTSLYGIGFGPFIITNKHLFRRNNGTLVVQSLHGVFKVKDTTTLQQHLVDGRDMIIIRMPKDFPPFPQKLKFREPQREERICLVTTNFQTKSMSSMVSDTSCRFPSGDGIFWKHWIQTKDGQCGSPLVSTRDGFIVGIHSASNFTNTNNYFTSVPKNFMELLTNQEAQQWVSGWRLNADSVLWGGHKVFMVKPEEPFQPVKEATQL [T132R] |  | 0.0485 |  | 0.0569 |  |  | 0.0761 | 0.004 | 0.0437 | 0.0561 |  |  | 0.0206 |  |
| MGESLFKGPRDYNPISSSICHLTNESDGHTTSLYGIGFGPFIITNKHLFRRNNGTLVVQSLHGVFKVKDTTTLQQHLVDGRDMIIIRMPKDFPPFPQKLKFREPQREERICLVTTNFQTKSMSSMVSDTSCTFPSMDGIFWKHWIQTKDGQCGSPLVSTRDGFIVGIHSASNFTNTNNYFTSVPKNFMELLTNQEAQQWVSGWRLNADSVLWGGHKVFMVKPEEPFQPVKEATQL [G136M] | 0.0419 | 0.0366 | 0.0505 | 0.116 |  | 0.0771 | 0.109 | 0.0604 | 0.104 | 0.0714 | 0.088 |  |  | 0.0956 |
| MGESLFKGPRDYNPISSSICHLTNESDGHTTSLYGIGFGPFHITNKHLFRRNNGTLVVQSLHGVFKVKDTTTLQQHLVDGRDMIIIRMPKDFPPFPQKLKFREPQREERICLVTTNFQTKSMSSMVSDTSCTFPSGDGIFWKHWIQTKDGQCGSPLVSTRDGFIVGIHSASNFTNTNNYFTSVPKNFMELLTNQEAQQWVSGWRLNADSVLWGGHKVFMVKPEEPFQPVKEATQL [I42H] | 0.0592 | 0.0421 | 0.0543 | 0.0484 | 0.036 | 0.0397 | 0.0338 |  | 0.0388 | 0.0537 | 0.0485 | 0.0404 |  |  |
| MGESLFKGPRDYNPISSSICHLTNESDGHTTSLYGIGFGPFIITNKHLFRRNNGTLVVQSLHGVFKVKDTTTLQQHLVDGRDMIIIRMPKDFPPFPQKLKFREPQRESRICLVTTNFQTKSMSSMVSDTSCTFPSGDGIFWKHWIQTKDGQCGSPLVSTRDGFIVGIHSASNFTNTNNYFTSVPKNFMELLTNQEAQQWVSGWRLNADSVLWGGHKVFMVKPEEPFQPVKEATQL [E108S] | 0.052 | 0.0415 | 0.0598 | 0.0678 |  | 0.0476 | 0.0593 |  | 0.0618 | 0.0532 |  |  | 0.0485 |  |
